From the supplement of paper PMC11417369
This is one part of the list.

System: PfHDP1 homeodomain (GST-tagged)
Assay: gcPBM binding intensity (ln(normalized median fluorescence intensity)); higher = stronger DNA binding
Summary of the method: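 An Agilent 4 × 180k array of primer-extended double-stranded 36-bp intergenic genomic probes, with negative controls, was incubated for 1 h with GST-tagged P. falciparum DNA-binding domains expressed in E. coli. Alexa488 anti-GST antibody detected bound protein, scanned at 488 nm. Binding intensity is the highest Masliner-normalised natural-log median intensity across replicate spots of either probe orientation.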

Row | Sequence | gcPBM binding intensity (ln)
1 | TTTTTTTCATAAGAAGCACACAAAAAATGATAGAGA [CACACA_site8401] | 6.87
2 | ATATATATATATATATGTACTTATTTGTATAAATAC [XGTACX_site8031] | 9.24
3 | ATACCTACATACATACGTACATATATATATATAATG [XGTACX_site234] | 7.33
4 | TAGATTTTTATGCGTGCACACATTTAAAAAAAAAAC [CACACA_site3421] | 10.3
5 | AAATATAATAACATAACACACACATGTATTTATAGG [CACACA_site8009] | 6.49
6 | TTTTAATAAATTCAAAACATAAAAAGGAAAAAAAAA [XGTACX_negctrl_site471] | 5.98
7 | TAATAAATAAATGACACACACACACGCAAAAAAAAA [CACACA_site7275] | 6.65
8 | AGGATATAATACCATACACACATTTATAAAATAACA [CACACA_site1930] | 6.63
9 | ATAATATGAAAACACACACACACACCCAAAAAAAAA [CACACA_site2011] | 6.78
10 | ATATATATTATATATATATATATATATATATATATA [CACACA_negctrl_site493] | 9.32
11 | CACATTAATTTTTGGGTGCACTTGGGAAATTTTGGT | 9.07
12 | AACAAATACGAACACACACACACACTAAAAAAAAAA [CACACA_site6386] | 6.85
13 | TGTAATCAAAAAAATAGTACATAAATTGTGTATACT [XGTACX_site5908] | 6.57
14 | ATATAGAATAAAACTATACACACCTATATTTAAACA [CACACA_site1902] | 6.54
15 | TGTAGTCTGGAGAAAAGTACACAGTATCTGGTAACC [XGTACX_site2033] | 5.91
16 | CTTGTATAGAAACACACACACACTTTCTTTTTTTAA [CACACA_site1964] | 6.76
17 | TATATTAATAAAGGTACTACACGGAAATGGAAATAT [XGTACX_site7760] | 7.24
18 | ATATAAAAAAATAATAAATAAATAAAAAGATTTCTT [XGTACX_negctrl_site110] | 6.09
19 | ATATTTTCCCTTGTTTTACACACGTGCTGATATGAG [CACACA_site8672] | 7.52

Row | Sequence | gcPBM binding intensity (ln)
20 | AATTTGAAATATGTGGTGCAGTTATATAATATGTTT [GTGCAC_site9885] | 7.62
21 | TTAAGTCCGTTAACAGTGCATTTTTTCTTTTATGTA [GTGCAC_site9867] | 7.28
22 | AGAAAAGAGAAAAGTAGTACAAAGGATCATTTAAAA [XGTACX_site5294] | 6.57
23 | ATTAAAAAAATATAAACACACAAAAAAAAAATATAC [CACACA_site1100] | 7.06
24 | TAATGAAAAAATAAAAGAATAAATAAATAAATAAAT [TGCATGCA_negctrl_site130] | 6.51
25 | TATAAAAAGCATAACACACACATGTCAATATATATA [CACACA_site1111] | 6.92
26 | AAAAAAAAAATATGTACACACATATATAATACATAA [CACACA_site1639] | 6.44
27 | ATAGAACAGAAAAGGCGTACAATAATATGTAAACAA [XGTACX_site2828] | 6.47
28 | TAAAAATCCACAAGCACACAAATGTACATATATATA [CACACA_site2462] | 6.61
29 | CATACATAGATATATACACACATACCTATAAATACA [CACACA_site6513] | 6.95
30 | TATATATGTGTTATATACCCTTTTTTATATATTAAT [XGTACX_negctrl_site313] | 6.62
31 | ATTACATGATATATCACACACACATATAGATATATA [CACACA_site7352] | 6.98
32 | GCTATTAATTTATAAGCACACAATATAAATATATAT [CACACA_site2251] | 6.31
33 | TACGTCTTTTTTTTGGTGCATAATTTTTTTGTACAA | 10.4
34 | TACACGTTCTACATTTGTACTTAATTTATACATAAG [XGTACX_site1579] | 6.86
35 | AATTTTGTTAAAAGGACACACAATTCAATATATTAA [CACACA_site647] | 6.49
36 | ATTTATTTAAACAAATCACACACAAATATATATACA [CACACA_site8622] | 6.75
37 | TATATTAAAATATTCACACACTAACGTAAATCATTG [CACACA_site5520] | 6.6
38 | TATGTCGACATTTAAAGTACAAAAAAAAAAAAAAAA [XGTACX_site8985] | 6.36

Row | Sequence | gcPBM binding intensity (ln)
39 | ATATTCATTAACCACACACACAAAAAAAATAAAATT [CACACA_site3801] | 6.99
40 | ATATATGTATTTAATACACACAAAACTTTCATTCCA [CACACA_site3531] | 6.67
41 | ATACATATATGCTTCTGTACACATAATTTATAAAAA [XGTACX_site7000] | 7.09
42 | TTTTTAGAAAGACATGCATGTAATAAAAATAAATAA [TGCATGCA_site685] | 6.69
43 | TATGAAAAGATATATACACACATAATAAAGGTATAT [CACACA_site7713] | 6.38
44 | CATTATTATTAACATACACACGTGTTAAATACACCC [CACACA_site6118] | 7.37
45 | ATTAAAACAAAATGTACACACATATCATTTAATGAC [CACACA_site6543] | 6.29
46 | CTATTTCAATTTAGTGCACACATTTTAATTTATAAG [CACACA_site2040] | 10.9
47 | ACATACACATATACATGTACATATATATATATATAT [XGTACX_site5082] | 9.33
48 | TTTTAATCTTAATTATGTACATATAAAATGTGTATA [XGTACX_site7382] | 6.27
49 | TATAAATTTAAAATGACACACACTAAAATTATTTAA [CACACA_site1239] | 6.48
50 | TATATATATATATATATATATATATATATATGTATA [TGCATGCA_negctrl_site17] | 9.25
51 | GTATTATTATTATGCACACAAAAATATTTATACATA [CACACA_site3656] | 10.9
52 | CATATGTCTTGAGATCGTACGTTATTTTTTTTATTT [XGTACX_site1381] | 6.99
53 | AAAAATTATATATATATATATATATATATATGTATA [GTGCAC_negctrl_site488] | 7.61
54 | TGGTAAATTTACCGTTGTACATTCATTTATAACATT [XGTACX_site8910] | 6.44
55 | AAGAATATTAATATAAATAAGTAAATAAATAAATAA [CACACA_negctrl_site417] | 6.42
56 | CGCGCCCAGAAACACACACACACACCGATATATATA [CACACA_site5250] | 6.83
57 | TAATGTATCTAAAATTGTACAAATATAAATCTAAAT [XGTACX_site1197] | 6.49
